Data: paper PMC4336329 (PLoS ONE, 2015)
In all, about 310,000 compounds went through this assay and about 2,200 (0.71%) showed an effect of 50% or more. The effect is printed as a negative number. The list shows a part of the results.

What follows are compounds tested against human ether-à-go-go-related gene (hERG) potassium channel (human, UniProt Q12809) (assay: primary screen, population patch clamp on CHO cells stably expressing hERG).
Sequence of human ether-à-go-go-related gene (hERG) potassium channel (Q12809 whole entry, looked up): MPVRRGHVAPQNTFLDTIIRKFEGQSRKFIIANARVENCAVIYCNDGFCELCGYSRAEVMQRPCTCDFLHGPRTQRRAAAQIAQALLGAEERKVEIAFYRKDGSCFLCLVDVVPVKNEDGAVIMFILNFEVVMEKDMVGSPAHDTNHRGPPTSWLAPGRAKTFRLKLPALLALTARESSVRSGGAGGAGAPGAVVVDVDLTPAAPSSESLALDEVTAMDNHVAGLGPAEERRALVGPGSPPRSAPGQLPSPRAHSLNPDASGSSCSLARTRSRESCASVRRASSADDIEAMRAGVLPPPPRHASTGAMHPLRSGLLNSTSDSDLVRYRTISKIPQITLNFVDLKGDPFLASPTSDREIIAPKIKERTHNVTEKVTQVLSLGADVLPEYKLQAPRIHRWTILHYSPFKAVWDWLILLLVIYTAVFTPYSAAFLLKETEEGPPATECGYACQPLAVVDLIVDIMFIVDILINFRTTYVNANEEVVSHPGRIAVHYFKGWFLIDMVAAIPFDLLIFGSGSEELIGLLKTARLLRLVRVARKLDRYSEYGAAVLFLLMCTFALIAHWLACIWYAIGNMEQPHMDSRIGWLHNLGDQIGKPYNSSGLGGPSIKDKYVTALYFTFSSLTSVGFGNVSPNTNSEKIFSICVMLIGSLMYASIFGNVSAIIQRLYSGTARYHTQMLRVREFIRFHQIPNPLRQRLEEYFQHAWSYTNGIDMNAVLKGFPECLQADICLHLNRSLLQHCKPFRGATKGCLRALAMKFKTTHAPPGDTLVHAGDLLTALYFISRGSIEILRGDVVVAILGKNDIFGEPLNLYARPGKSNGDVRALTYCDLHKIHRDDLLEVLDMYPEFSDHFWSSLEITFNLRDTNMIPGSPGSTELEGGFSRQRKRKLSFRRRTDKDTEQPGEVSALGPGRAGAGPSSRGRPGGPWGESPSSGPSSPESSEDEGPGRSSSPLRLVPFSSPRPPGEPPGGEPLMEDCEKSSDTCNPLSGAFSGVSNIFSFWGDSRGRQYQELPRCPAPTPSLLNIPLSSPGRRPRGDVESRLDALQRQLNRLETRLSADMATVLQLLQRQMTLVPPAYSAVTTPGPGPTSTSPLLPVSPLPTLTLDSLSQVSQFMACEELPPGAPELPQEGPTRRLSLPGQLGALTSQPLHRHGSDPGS

SMILES | hERG current change (%, negative = inhibition) at 1uM [%]
O=C(CCSc1ccccn1)Nc1ccc(Br)cc1 | -4.86
FC(F)Oc1ccc(NC(=S)NC2CCCCCCC2)cc1 | 9.62
CC1(C)Cc2c(sc3nc4n(c(=N)c23)CCC4)CO1 | 3.37
CCOc1ccc(N2C(=O)/C(=C/c3ccco3)N(C)C2=S)cc1 | 4.2
COc1ccc(-c2cc3ccccc3cn2)cc1 | 14.1
Cc1ccc(C)c(OCC(=O)NCC(C)(C)N2CCOCC2)c1 | -7.87
COc1ccc(-c2noc(CCC(=O)NCCCN3CCC(C)CC3)n2)cc1 | 9.03
C=CCNC(=O)C1CCN(S(=O)(=O)c2cccs2)CC1 | 17.5
Cc1[nH]nc2c1C(c1ccoc1)C(C#N)=C(N)O2 (stereo not drawn) | -9.65
CC1(CO)COC(c2ccccc2)=N1 (stereo not drawn) | 2.12
Cc1ccc(-n2c(C)cc(/C=N/Nc3ccc([N+](=O)[O-])cn3)c2C)c(C)c1 | 8.37
CCN(CC)CC(=O)N1c2ccccc2Oc2c(c(=O)n(C)c(=O)n2C)C1c1cccc([N+](=O)[O-])c1 (stereo not drawn) | 6.53
O=C1CC(C(=O)N2CCN(c3ccc(F)cc3)CC2)CN1CCc1ccccc1 (stereo not drawn) | -2.46
Cn1c(=O)c2c(nc(CN3CCc4ccccc4C3)n2Cc2ccccc2)n(C)c1=O | 4.2
O=c1c2cc(N3CCOCC3)ccc2[nH]c(=S)n1CCCN1CCCC1 | -3.39
Clc1ccccc1CN1CCN(c2ccccc2)CC1 | 20.8
Cc1cc(C)cc(OCc2nc(-c3cccnc3)no2)c1 | 5.05
Cc1ccc2cc(CN(CC3CCCO3)C(=O)c3cccs3)c(=O)[nH]c2c1 (stereo not drawn) | 0.53
Cc1nc(NC(=O)COC(=O)C2=NNC(=O)CC2)c(Cl)cc1Cl | -3.34
CCOC(=O)C1NN=C(C(=O)c2ccc(C)cc2)C1c1ccc(C)cc1 (stereo not drawn) | 5.25
COc1cccc(CC(NC(C)=O)C(=O)NC2CCN(S(=O)(=O)c3ccc(C)cc3)CC2)c1OC (stereo not drawn) | 15.8
Cc1ccc(NS(=O)(=O)c2ccc3[nH]c(=O)[nH]c3c2)c(C)c1 | 9.9
NS(=O)(=O)c1ccc(CNC(=O)CC23CC4CC(CC(C4)C2)C3)cc1 | -2.4

SMILES | hERG current change (%, negative = inhibition) at 1uM [%]
COc1cc(C(=O)n2nc(C)cc2C)ccc1O | 0.889
Cc1cc(O)c(C(C)C)cc1N=Nc1ccccc1C(=O)O | 3.07
Cc1ccc(CC(=O)N/N=C/c2ccc(OC(=O)c3ccc([N+](=O)[O-])cc3)cc2)cc1 | 13
N#Cc1c(N)sc2c1CCN(C(=O)OCc1ccccc1)C2 | 8.19
Cc1cccc(NC(=O)c2ccc(S(=O)(=O)NCc3cccnc3)cc2)c1C | 8.4
COC(=O)C1=CN(CC2CCCO2)C=C(C(=O)OC)C1c1ccsc1 (stereo not drawn) | 3.52
CCOc1ccc(C2c3[nH]c4ccccc4c3CCN2Cc2cn(CC)nc2C)cc1 (stereo not drawn) | -13.1
COC(=O)c1cccc(NC(=O)CCSc2ccc(Cl)cc2)c1C | 13.8
Nc1nc(Cn2nnc(-c3ccccc3F)n2)nc(N2CCOCC2)n1 | -53.8
CC1(CCc2ccc3c(c2)OCO3)NCCc2c1[nH]c1ccccc21.Cl (stereo not drawn) | -10.8
CC(C)Sc1nnc(NC(=O)c2ccco2)s1 | -4.29
Cc1cc(C)cc(OCC(=O)Nc2nc3ccc([N+](=O)[O-])cc3s2)c1 | 11.2
NC1=NC(=Nc2cccc(Cl)c2)c2ccccc21 | 14.4
COC(=O)c1c(NC(=O)CN2C(=O)C(=O)N(C(C)C)C2=O)sc(C)c1C | 11.6
CC(C)(C)n1nc2c(c1NC(=O)COc1ccc3ccccc3c1)CS(=O)C2 (stereo not drawn) | 14.7
COc1ccccc1NC(=O)/C=C/C(N)=O | 13.2
CSC1=NC(C(Cl)(Cl)Cl)N=C(c2ccccc2)N1 (stereo not drawn) | 10.3
CCOC(=O)CSc1nnc(C)c(=O)[nH]1 | 14.3
CCCCCC(=O)Nc1cccc(S(=O)(=O)NC2=NCCCCC2)c1 | 1.44
Nc1c(C(=O)Nc2ccccc2)sc2nc3c(c(-c4ccco4)c12)CCC3 | 13
COc1ccc(CCNC(=O)CSc2nnc3c(n2)[nH]c2ccc(F)cc23)cc1OC | 5.3
CCn1c(C)c(C(C)=O)c(N2CCC(C(N)=O)CC2)nc1=S | 13.2
